From patent US20170043031A1, “IGF-1R ANTIBODY-DRUG-CONJUGATE AND ITS USE FOR THE TREATMENT OF CANCER” (PIERRE FABRE MEDICAMENT, priority 2014, published 2017)

Molecular target: T1, soluble recombinant human IGF-1R (Homo sapiens, UniProt P08069)
T1 construct: composed of 2α chains and the extracellular domains of 2β chains; purchased R&D Systems 305-GR-50
Experiment: Biacore X100 single cycle kinetics, around 600 RU captured h-IGF-1R (Example 13)
Type: binding
Conditions: 1:1 model, FIG. 18 sensorgramme
Method: The dissociation constants (KD) of the binding of the antibodies on a recombinant soluble human-IGF-1R were defined by the ratio between the dissociation rate (koff) and the association rate (kon). The kinetic experiments were run on a Biacore X100 device using a CM5 sensor chip activated by a mouse anti-Tag His monoclonal antibody. Around 12000 RU of antibodies are chemically grafted on the carboxymethyldextan matrix using the amine kit chemistry.
The experiments were carried out at 25° C. with a flow rate of 30 μl/min using the HBS-EP+ buffer (GE Healthcare) as the running and sample dilution buffer.
The single cycle kinetic scheme was used to define the kinetic parameters of the binding of the anti-IGF-1R antibodies on a soluble recombinant human IGF-1R captured by its two C-terminal 10 Histidine-tag. • 1—A solution of a soluble recombinant version of the human IGF-1R hetero-tetramere: 2α chains and the extracellular domains of 2β chains expressed with an additional C-terminal 10-His tag (R&D Systems catalogue number 305-GR-50) was injected during one minute on the second flowcell at a concentration of 10 μg/ml. A mean of 587 RU (with a standard deviation 24 RU) of the soluble receptor were captured at each of the 24 cycles realised for this study. • 2—After the capture phase, either the running buffer was injected 5 times (90 s each injection) or a growing range of 5 concentrations of one of the six antibodies was injected (90 s each injection) on both flowcells. […]
The resulting sensorgrams were analysed by the Biaevaluation software with a 1:1 model. […]
For the 6 antibodies tested in this experiment the experimental data fitted well with an 1:1 model with significant koff values when the higher concentration was defined as a constant and the other four concentrations are calculated (see FIG. 18).
The dissociation constants (KD) calculated as the ratio: kof/kon and the half-live of the complexes calculated as the ratio: Ln(2)/koff are represented in the FIGS. 19 and 20. […]

Rmax: 307.6±0.3 RU | koff: (7.81±0.18)×10^−5 s^−1 | kon: (1.206±0.036)×10^6 M^−1·s^−1
B1: c208F2: chimeric 208F2 antibody, heavy chain SEQ ID No. 23, light chain SEQ ID No. 28 (antibody)
heavy: QVQLQQSGPELVKPGASVKMSCKASGYTFTSYYIYWVKQRPGQGLEWLGWIWPGDGSTKYNEKFKDKTTLTADKSSNTAYMFLSSLTSEDSAVYFCASPMITPNYAMDYWGQGASVTVSSASTKGPSVFPLAPSSKSTSGGTAALGCLVKDYFPEPVTVSWNSGALTSGVHTFPAVLQSSGLYSLSSVVTVPSSSLGTQTYICNVNHKPSNTKVDKRV[human IgG1 Fc not written out]
light: DIQMTQTTSSLSASLGDRVTISCRASQDISKYLNWYQQQPDGTIKLLIYYTSRLHSGVPSRFSGRGSGTDYSLTISNVEQEDIATYFCQQGSTLPYTFGGGTKLEIKRTVAAPSVFIFPPSDEQLKSGTASVVCLLNNFYPREAKVQWKVDNALQSGNSQESVTEQDSKDSTYSLSSTLTLSKADYEKHKVYACEVTHQGLSSPVTKSFNRGEC
modifications: c208F2, heavy chain, full length; c208F2, light chain, full length
